Measurements: the supplement of paper PMC12217912
The list shows a part of the results. Sequences were assembled here from the parent chain. Inactive controls read about 0.05.

B1: TEV protease; numbered along this chain (parent)
chain: MGESLFKGPRDYNPISSSICHLTNESDGHTTSLYGIGFGPFIITNKHLFRRNNGTLVVQSLHGVFKVKDTTTLQQHLVDGRDMIIIRMPKDFPPFPQKLKFREPQREERICLVTTNFQTKSMSSMVSDTSCTFPSGDGIFWKHWIQTKDGQCGSPLVSTRDGFIVGIHSASNFTNTNNYFTSVPKNFMELLTNQEAQQWVSGWRLNADSVLWGGHKVFMVKPEEPFQPVKEATQL

Variants of: B1
Experiment: raw area under fraction-flipped curve 0-4 h after induction (AUC4h, not background-subtracted), DNA-recorder readout of cleavage of the substrate (dimensionless); higher = more cleavage of the substrate by the protease variant
Settings: temperature: 34 °C; time window: 0-4 h after rhamnose induction
Experimental: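 In vivo DNA recorder in E. coli TOP10(DE3) ΔrhaA at 34 °C. Each TEVp single-site mutant (parent TEVp 0) is paired with a single-site variant of the 7-mer TEVs (canonical ENLYFQ|S). The substrate sits between flexible linkers in a Bxb1-sfGFP-TEVs-SsrA fusion, so cleavage stabilises Bxb1 and speeds flipping of a recombination array, read by NGS. The value is the raw area under the fraction-flipped curve over 0-4 h after rhamnose induction (AUC4h), with ≥20 reads per time point. It is not background-subtracted; inactive controls average about 0.047.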
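Further: Bxb1 expression induced with 0.2% (w/v) L-rhamnose at OD600 near 0.5, cultures sampled hourly, flipped fraction per protease–substrate barcode pair counted by paired-end Illumina sequencing.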

Variant: MGESLFKGPRDYNPISSSICHLTNESDGHTTSLYGIGFGPFIITNKHLFRRNNGTLVVQSLHGVFKVKDTTTLQQHLVDGRDMIIIRMPKDFPPFPQKLKFREPQREERICLVTTNFQTKSMSSMVSDTSCTFPSGDGIFWKHWIQTKDGQCGSPLVSTRDGFIVGIHSASNFTNTNNYFTSVPKNFMELLENQEAQQWVSGWRLNADSVLWGGHKVFMVKPEEPFQPVKEATQL [T192E]
- area with substrate EALYFQS: 0.167
- area with substrate ECLYFQS: 0.0932
- area with substrate EGLYFQS: 0.109
- area with substrate EILYFQS: 0.0841
- area with substrate EKLYFQS: 0.075
- area with substrate ELLYFQS: 0.0861
- area with substrate EMLYFQS: 0.108
- area with substrate EQLYFQS: 0.108
- area with substrate ERLYFQS: 0.0932
- area with substrate ESLYFQS: 0.11
- area with substrate ETLYFQS: 0.118
- area with substrate EVLYFQS: 0.0971
- area with substrate EYLYFQS: 0.0998

Variant: MGESLFKGPRDYNPISSSICHLTNESDGHTTSLYGIGFGPFIITNKHLFRRNNGTLVVQSLHGVFKVKDTTTLQQHLVDGRDMIIIRMPKDFPPFPQKLKFREPQREERICLVTTNFQTKSMSSMVSDTSCTFPSGDGIFWKHWIQTKDGQCGSPLVSTRDGFIVGIHSASNFDNTNNYFTSVPKNFMELLTNQEAQQWVSGWRLNADSVLWGGHKVFMVKPEEPFQPVKEATQL [T174D]
- area with substrate EALYFQS: 0.0983
- area with substrate ECLYFQS: 0.113
- area with substrate EDLYFQS: 0.0917
- area with substrate EELYFQS: 0.083
- area with substrate EFLYFQS: 0.132
- area with substrate EGLYFQS: 0.0685
- area with substrate EHLYFQS: 0.0909
- area with substrate EILYFQS: 0.101
- area with substrate EKLYFQS: 0.101
- area with substrate ELLYFQS: 0.0692
- area with substrate EMLYFQS: 0.117
- area with substrate EPLYFQS: 0.0949
- area with substrate EQLYFQS: 0.115
- area with substrate ERLYFQS: 0.0655
- area with substrate ESLYFQS: 0.101
- area with substrate ETLYFQS: 0.096
- area with substrate EVLYFQS: 0.0848
- area with substrate EWLYFQS: 0.0754
- area with substrate EYLYFQS: 0.1

Variant: MGESLFKGPRDYNPISSSICHLTCESDGHTTSLYGIGFGPFIITNKHLFRRNNGTLVVQSLHGVFKVKDTTTLQQHLVDGRDMIIIRMPKDFPPFPQKLKFREPQREERICLVTTNFQTKSMSSMVSDTSCTFPSGDGIFWKHWIQTKDGQCGSPLVSTRDGFIVGIHSASNFTNTNNYFTSVPKNFMELLTNQEAQQWVSGWRLNADSVLWGGHKVFMVKPEEPFQPVKEATQL [N24C]
- area with substrate EALYFQS: 0.105
- area with substrate ECLYFQS: 0.0697
- area with substrate EDLYFQS: 0.0804
- area with substrate EELYFQS: 0.0961
- area with substrate EGLYFQS: 0.0717
- area with substrate EHLYFQS: 0.0796
- area with substrate EILYFQS: 0.0732
- area with substrate EKLYFQS: 0.0881
- area with substrate ELLYFQS: 0.0767
- area with substrate EPLYFQS: 0.0919
- area with substrate EQLYFQS: 0.0989
- area with substrate ERLYFQS: 0.0702
- area with substrate ESLYFQS: 0.0779
- area with substrate ETLYFQS: 0.0769
- area with substrate EVLYFQS: 0.0556
- area with substrate EWLYFQS: 0.025
- area with substrate EYLYFQS: 0.0778

Variant: MGESLFKGPRDYNPISSSICHLTNESDGHTTSLYGIGFGPFIITNKHLFRRNNGTLVVQSLHGVFKVKDTTTLQQHLVDGRDMIIIRMPKDFPPFPQKLKFREPQREERICLVTTNFQTKSMSSMVSDTSCTFPSGDGIFWKHWIQTKDGQCGSPLVSTDDGFIVGIHSASNFTNTNNYFTSVPKNFMELLTNQEAQQWVSGWRLNADSVLWGGHKVFMVKPEEPFQPVKEATQL [R160D]
- area with substrate EALYFQS: 0.123
- area with substrate ECLYFQS: 0.116
- area with substrate EDLYFQS: 0.145
- area with substrate EGLYFQS: 0.161
- area with substrate EHLYFQS: 0.107
- area with substrate EILYFQS: 0.092
- area with substrate EKLYFQS: 0.121
- area with substrate ELLYFQS: 0.0915
- area with substrate EMLYFQS: 0.113
- area with substrate EQLYFQS: 0.139
- area with substrate ERLYFQS: 0.111
- area with substrate ESLYFQS: 0.118
- area with substrate EVLYFQS: 0.123
- area with substrate EWLYFQS: 0.0956
- area with substrate EYLYFQS: 0.116

Variant: MGESLFKGPRDYNPISSSICHLTNESDGHTTSLYGIGFGPFIITNKHLFRRNNGTLVVQSLHGVFKVKDTTTLQQHLVDGRDMIIIRMPKDFPPFPQKLKFREPQREERICLVTTNFQTKSMSSMVSDTSCTFPSGDGIFWKHWIQTKDGQVGSPLVSTRDGFIVGIHSASNFTNTNNYFTSVPKNFMELLTNQEAQQWVSGWRLNADSVLWGGHKVFMVKPEEPFQPVKEATQL [C152V]
- area with substrate EALYFQS: 0.0683
- area with substrate ECLYFQS: 0.0437
- area with substrate EELYFQS: 0.0614
- area with substrate EGLYFQS: 0.056
- area with substrate EHLYFQS: 0.0612
- area with substrate EILYFQS: 0.0801
- area with substrate EKLYFQS: 0.0543
- area with substrate ELLYFQS: 0.0605
- area with substrate EMLYFQS: 0.0529
- area with substrate EPLYFQS: 0.0676
- area with substrate EQLYFQS: 0.0509
- area with substrate ERLYFQS: 0.078
- area with substrate ESLYFQS: 0.0679
- area with substrate ETLYFQS: 0.0531
- area with substrate EVLYFQS: 0.0605
- area with substrate EWLYFQS: 0.063
- area with substrate EYLYFQS: 0.0619

Variant: MGESLFKGPRDYNPISSSICHLTNESDGHTTSLYGIGFGPFIITNKHQFRRNNGTLVVQSLHGVFKVKDTTTLQQHLVDGRDMIIIRMPKDFPPFPQKLKFREPQREERICLVTTNFQTKSMSSMVSDTSCTFPSGDGIFWKHWIQTKDGQCGSPLVSTRDGFIVGIHSASNFTNTNNYFTSVPKNFMELLTNQEAQQWVSGWRLNADSVLWGGHKVFMVKPEEPFQPVKEATQL [L48Q]
- area with substrate EALYFQS: 0.0379
- area with substrate ECLYFQS: 0.0617
- area with substrate EDLYFQS: 0.0401
- area with substrate EELYFQS: 0.0587
- area with substrate EFLYFQS: 0.0489
- area with substrate EGLYFQS: 0.0461
- area with substrate EILYFQS: 0.054
- area with substrate EKLYFQS: 0.0545
- area with substrate ELLYFQS: 0.0669
- area with substrate EMLYFQS: 0.0545
- area with substrate EPLYFQS: 0.0566
- area with substrate ERLYFQS: 0.0582
- area with substrate ESLYFQS: 0.074
- area with substrate ETLYFQS: 0.0546
- area with substrate EVLYFQS: 0.0616

Variant: MGESLFKGPRDYNPISSSICHLTNESDGHTTSLYGIGFGPFIITNKHLFRRNNGTLVVQSLHGVFKVKDTTTLQQHLVDGRDMIIIRMPKDFPPFPQKLKFREPQREERICLVTTNFQTKSMSSMVSDTSCTFPSGDGIFWKHWIQTKDGQCGSPLVSTRDGFIVGIHSASNFTNTNNYFTSVPKNFMELLTNQEAQQWVSGWRLNADSVLWGGHKVFMVKPEWPFQPVKEATQL [E224W]
- area with substrate EALYFQS: 0.108
- area with substrate ECLYFQS: 0.0871
- area with substrate EELYFQS: 0.0992
- area with substrate EFLYFQS: 0.0984
- area with substrate EGLYFQS: 0.099
- area with substrate EHLYFQS: 0.0674
- area with substrate EILYFQS: 0.0904
- area with substrate EKLYFQS: 0.126
- area with substrate ELLYFQS: 0.0947
- area with substrate EMLYFQS: 0.124
- area with substrate EPLYFQS: 0.105
- area with substrate EQLYFQS: 0.124
- area with substrate ERLYFQS: 0.109
- area with substrate ESLYFQS: 0.0898
- area with substrate ETLYFQS: 0.123
- area with substrate EVLYFQS: 0.085
- area with substrate EWLYFQS: 0.0854

Variant: MGESLFKGPRDYNPISSSICHLTNESDGHTTSLYGIGFGPFIITNKHLFRRNNGTLVVQSLHGVFKVKDTTTLQQHLVDGRDMIIIRMPKDFPPFPQKLKFREPQREERICLVTTNFQTKSMSSMVSDTSCTFPSGDGIFWKHWIQTKDGQCGSPLVSTRDGFIVGIHSASNFTNTNNYFTSVPKNFMELLTNQEAQQWVSGWRLNADSVLWGGHKVFMVKPECPFQPVKEATQL [E224C]
- area with substrate EALYFQS: 0.146
- area with substrate ECLYFQS: 0.112
- area with substrate EDLYFQS: 0.108
- area with substrate EELYFQS: 0.12
- area with substrate EFLYFQS: 0.102
- area with substrate EHLYFQS: 0.0935
- area with substrate EILYFQS: 0.0831
- area with substrate EKLYFQS: 0.0988
- area with substrate ELLYFQS: 0.088
- area with substrate EMLYFQS: 0.111
- area with substrate EPLYFQS: 0.111
- area with substrate EQLYFQS: 0.0965
- area with substrate ERLYFQS: 0.101
- area with substrate ESLYFQS: 0.0846
- area with substrate ETLYFQS: 0.121
- area with substrate EVLYFQS: 0.0869
- area with substrate EWLYFQS: 0.0896
- area with substrate EYLYFQS: 0.118

Variant: MGESLFKGPRDYNPISSSICHLTNESDGHTTSLYGIGFGPFIITNKHLFRRNNGTLVVQSLHGVFKVKDTTTLQQHLVDGRDMIIIRMPKDFPPFSQKLKFREPQREERICLVTTNFQTKSMSSMVSDTSCTFPSGDGIFWKHWIQTKDGQCGSPLVSTRDGFIVGIHSASNFTNTNNYFTSVPKNFMELLTNQEAQQWVSGWRLNADSVLWGGHKVFMVKPEEPFQPVKEATQL [P96S]
- area with substrate EALYFQS: 0.16
- area with substrate EILYFQS: 0.0938
- area with substrate EKLYFQS: 0.108
- area with substrate ELLYFQS: 0.0988
- area with substrate EPLYFQS: 0.129
- area with substrate ERLYFQS: 0.0978
- area with substrate ESLYFQS: 0.115
- area with substrate ETLYFQS: 0.115
- area with substrate EYLYFQS: 0.109
